Experimental findings from ChEMBL document CHEMBL4888484, “Replenishing the malaria drug discovery pipeline: Screening and hit evaluation of the MMV Hit Generation Library 1 (HGL1) against asexual blood stage Plasmodium falciparum ,using a nano luciferase reporter read-out” (2022) are described below.

The whole screen tested about 150,000 compounds, of which about 540 (0.36%) showed an effect of 50% or more. This is one part of the list.

In the assay the test system is Plasmodium falciparum. Kind of assay: Primary screen in NF54 nanoGlo assay, in single point, at 2uM, 72h; a lower Z score goes with more inhibition. In kind it is functional, Erythrocyte. As to conditions: timepoint 72 hour.
Broadly, the % Inhibition is the change of the read-out against control, counted positive when it falls. For `COc1cccc2c(C(=O)N3C[C@H](N)C4(CCC4)C3)coc12`, the “% Inhibition” value is given as 6% and the Z score is on record as -0.96.
`Cc1noc(C)c1CC(=O)N1CCCCCC1`: the “% Inhibition” value is on record as -23% and the Z score amounted to 2.1.
In the same order, the values of `NC(=O)c1cn2c3c(cc(Br)cc3c1=O)CC2` are -1% and 0.06.
On to `CC1CNc2c(C(=O)N[C@@H]3C[C@H]3C3CCCCC3)cnn2C1` (stereo partly drawn), for which the “% Inhibition” value is on record as -5% and the Z score worked out at 0.61.
In the same order, the values of `Cc1cccc(CO[C@]2(C(=O)NCC3CC3)CC(OCc3ccc(F)cc3F)[C@H](O)[C@H](O)C2)c1` (stereo partly drawn) are -18% and 1.78.
In the same order, the values of `C[C@@H]1CN(C(=O)c2ccc(Cl)s2)CC[C@@]1(O)C1CCOCC1` are 14% and -1.81.
Consider `Cc1cc(C(=O)N[C@@H](C)CCc2ccccc2)c2c(C)nn(-c3cccc(Cl)c3C)c2n1`, for which the “% Inhibition” value was -7% and the Z score was determined as 0.74.
In the same order, the values of `Cc1nc(C)c(C(=O)Nc2ccc3[nH]c([C@H](C)O)nc3c2)o1` are 7% and -0.88.
On the same counts, the results for `CC(C)c1ccc(C(=O)N[C@H]2CCOC[C@@H]2O)c(=O)n1C` are 19% and -2.46.
Turning to `CCc1ccc(CN(Cc2cc(C)no2)C2CC2)cc1`, the “% Inhibition” value is listed as -7% and the Z score was determined as 1.26.
As for `CN1CCC[C@H](c2nc(-c3ccc(F)cn3)no2)C1`, the “% Inhibition” value is given as -7% and the Z score was determined as 1.09.
On the same counts, the results for `Cc1cccc(Cl)c1OCCNC(C)(C)C` are -19% and 2.44.
In the same order, the values of `O=C(N[C@H]1CO[C@H]2[C@@H]1OC[C@@H]2Nc1nccc(-c2ccco2)n1)c1ccc2c(c1)OCO2` are -11% and 1.39.
In the same order, the values of `C[C@@H]1CN(c2ccc(C(=O)N(C)C)cn2)C[C@H](C)N1C` are -17% and 1.96.
Regarding `O=C(Nc1ccc2c(c1)OCCO2)N1CCC[C@H](c2nnc3ccccn23)C1`, the “% Inhibition” value was -12% and the Z score stood at 1.17.
In the same order, the values of `CN(C)c1nc(N)nc(CNC(=O)[C@]2(c3ccc(F)cc3)CC2(C)C)n1` are 6% and -0.85.
For `Cc1cccc(C)c1NC(=O)C1(NC(=O)CCc2cc(C(C)(C)C)c(O)c(C(C)(C)C)c2)CCCCC1`, the “% Inhibition” value is reported as -2% and the Z score stood at 0.39.
For the compound `CCCn1cc(CN/C(=N\c2cc(C)ccc2C)NC(=O)c2cccc(F)c2)c(C)n1`, the “% Inhibition” value was determined as 1% and the Z score is -0.17.
In the same order, the values of `CCC(C)N(CC(=O)N1CCc2sccc2C1COc1ccc(C)cc1)C(=O)c1ccc2c(c1)OCO2` (stereo not drawn) are -7% and 0.83.
On the same counts, the results for `CC(C)(C)OC(=O)N1CCN(C2CS(=O)(=O)C2)CC1` are 4% and -0.46.
In the same order, the values of `Cc1nc(C)n(CCCn2cnc3cn(C)nc3c2=O)n1` are -2% and 0.31.
In the case of `O=C(C[C@H](c1ccccc1F)c1c[nH]c2ccc(Cl)cc12)NCc1ccncc1`, the “% Inhibition” value was 3% and the Z score is -0.35.
In the case of `O=C(NC[C@H]1COc2ccccc2O1)N1CCN(c2nccs2)CC1`, the “% Inhibition” value is on record as -8% and the Z score is given as 1.26.
`CC(C)(CCC(=O)N1CCn2ccnc2C1)C(=O)N1CCn2ccnc2C1`: the “% Inhibition” value is 15% and the Z score is -1.76.
In the same order, the values of `CC(C)OCC(=O)Nc1nc2n(c1C(=O)OC(C)(C)C)CCCC2` are -14% and 2.1.
On the same counts, the results for `Cc1cc(C)nc(-n2nc(C)c3c2N(Cc2ccccc2F)C(=O)C[C@@H]3c2ccc(Cl)cc2)n1` are -9% and 1.23.
On to `CCC(=O)N[C@@H]1c2ccccc2C2(CCN(C(=O)C3CCCC3)CC2)[C@H]1OCc1cccnc1`, for which the “% Inhibition” value is 10% and the Z score is listed as -1.23.
In the same order, the values of `Cc1nn(C)c(C)c1C(=O)C(=O)N(C)C1CCCCCC1` are -37% and 4.28.
Take `CC1C(C(=O)N2CCCCC2c2nc(-c3ccccc3)c[nH]2)C1(F)F` (stereo not drawn): the “% Inhibition” value is reported as -1% and the Z score was found to be 0.15.
On the same counts, the results for `O=C1C2CCC(c3ccccc3)CC2C(=O)N1c1cccc2ccccc12` (stereo not drawn) are 6% and -0.75.
On the same counts, the results for `Cc1ccc(NS(=O)(=O)c2c(C)[nH]c(-c3nnc(C4CCC4)o3)c2C)c(C)c1` are 0% and 0.05.
In the same order, the values of `Cc1cc(=O)c(C(=O)N[C@H](C#N)c2cc(Cl)cc(Cl)c2)c[nH]1` are 2% and -0.33.
Consider `Cc1nsc(NCCCOC2CCOCC2)n1`, for which the “% Inhibition” value is recorded as -4% and the Z score is reported as 0.44.
In the case of `Cc1ccc(OC2CCN(C(=O)NCc3ccncc3C)CC2)cc1`, the “% Inhibition” value is given as -2% and the Z score was found to be 0.21.
On to `CC(C)CCC(=O)N(C)Cc1ccc(Br)o1`, for which the “% Inhibition” value is -10% and the Z score is on record as 1.57.
On the same counts, the results for `Cc1[nH]c2c(C)ccc3c2c1CCN1C(=O)OC2(CCCCC2)[C@@]31C` are 2% and -0.25.
In the same order, the values of `CCC[C@H](C)NC(=O)Nc1cccc(OC(F)F)c1` are -3% and 0.53.
In the same order, the values of `COCC(=O)Nc1cc(C(=O)N2CCN(c3ccccc3)CC2)c2c(c1)ncn2CCc1ccccc1` are -7% and 1.03.
`Cc1nc(Cc2ncnn2C2CCCCC2)cs1`: the “% Inhibition” value is on record as -10% and the Z score is given as 1.77.
In the same order, the values of `CC1CCCC(Nc2c(-c3ccsc3)nc3ccc(Cl)cn23)C1C` (stereo not drawn) are -15% and 1.65.
In the same order, the values of `COCCNc1ncccc1-c1noc([C@@H]2CCCN2C2CCCCC2)n1` are 9% and -1.01.
In the same order, the values of `O=C(NCc1ccccc1)C1CC(=O)N(C2CC3CCC2C3)C1` (stereo not drawn) are 3% and -0.3.
As to `CC(C)Cc1cc(NC(=O)CCC(F)(F)F)[nH]n1`, the “% Inhibition” value was -1% and the Z score is recorded as 0.13.
In the same order, the values of `CN(C)C(=O)C[C@H]1CCCCN(Cc2ccccc2)C1=O` are 0% and -0.06.
On the same counts, the results for `COc1ccc(CCC(=O)N2CCC[C@H](Oc3cc(C)nc(C)n3)C2)cc1` are 7% and -1.03.
Take `Cn1ncnc1NC(=O)C1CCCCC1`: the “% Inhibition” value is -7% and the Z score turned out to be 0.97.
On to `Cc1cccc(-c2noc(-c3cn(-c4ccc(C)c(C)c4)c(=O)c4ccccc34)n2)c1`, for which the “% Inhibition” value is -2% and the Z score came out at 0.27.
On the same counts, the results for `COc1ccc(N2CCN(C(=O)c3cc(NC(C)=O)cc4nc(C)ccc34)CC2)cc1` are -8% and 1.07.
In the same order, the values of `CC(C)(C)C[C@H]1CCCN1c1ccncc1C(N)=O` are -9% and 1.25.
In the same order, the values of `O=C(CNCCN1CCCOC1=O)NC1CCCCCCC1` are -5% and 1.1.
Turning to `COc1ccc(Cl)cc1C(=O)Nc1ccnn1C[C@H]1CCOC1`, the “% Inhibition” value was found to be 3% and the Z score was -0.37.
Regarding `Cc1ccc(C(C)NC(C)c2ncc(C(C)(C)C)o2)o1` (stereo not drawn), the “% Inhibition” value is listed as -5% and the Z score stood at 0.52.
In the same order, the values of `CCCc1ccc(CN2CCC(c3cc[nH]n3)CC2)o1` are -8% and 0.95.
On the same counts, the results for `O=C1Nc2cc(C(=O)N3CCCCCC3)ccc2N2CCCC[C@@H]12` are -26% and 4.84.
In the same order, the values of `O=C(CCNC(=O)Cc1n[nH]c(=O)c2ccccc12)NCc1cccnc1` are -15% and 2.34.
As to `CCc1nn(C)c(OC)c1CNS(=O)(=O)c1cccc2c1OC(C)(C)C2`, the “% Inhibition” value is -7% and the Z score worked out at 0.62.
In the case of `Cc1csc(C(=O)NCC2(OCCO)CCCC2)c1`, the “% Inhibition” value was -5% and the Z score is 0.63.
In the same order, the values of `O=C(NCc1cccc(F)c1)[C@H]1CCCN(c2nc3ccccc3n(Cc3ccccc3)c2=O)C1` are 33% and -0.55.
On the same counts, the results for `O=C(Nc1ccc(OC2COC2)cc1)N1CCc2c(F)cc(F)cc2C1` are -10% and 1.17.
In the same order, the values of `CC(C)(NC(=O)CCCn1cncn1)c1c(Cl)cccc1Cl` are 5% and -0.62.
As to `O=C(NC[C@H]1CS(=O)(=O)c2ccccc2O1)c1ccc(C(F)F)nc1`, the “% Inhibition” value was -3% and the Z score is 0.45.
In the same order, the values of `CC(C)n1cc(C(=O)N(C)C[C@H]2CCCN3CCCC[C@@H]23)cn1` are -2% and 0.29.
On to `COc1cc2c(cc1OC)CN(c1nc(C)nc3c1cnn3C)CC2`, for which the “% Inhibition” value was determined as 2% and the Z score is -0.34.
In the same order, the values of `CN(Cc1cccc(Br)c1O)C(=O)OC(C)(C)C` are -6% and 0.75.
On the same counts, the results for `O=C(CCc1cccnc1)Nc1ccccc1N1CCc2ccccc2C1` are -8% and 1.24.
`N[C@H]1CCCN(C2CCN(c3ccccc3Cl)CC2)C1`: the “% Inhibition” value was -7% and the Z score worked out at 0.8.
In the same order, the values of `C[C@@H](c1ccccc1)n1nnnc1N1Cc2cnn(CCO)c2C1` are -5% and 0.44.
In the case of `CN1CCCC[C@@H]1CCNC(=O)c1ccc(N[C@H]2CC[C@H](O)CC2)nc1`, the “% Inhibition” value is reported as -4% and the Z score is recorded as 0.86.
On the same counts, the results for `CC(C)C(=O)NCCN(C)Cc1ccc(C#N)cc1Br` are -19% and 2.19.
In the same order, the values of `COCCCNC(=O)c1cnn(-c2nccc(-c3ccc(C)o3)n2)c1C` are -5% and 0.73.
In the same order, the values of `O=C(c1ccccc1F)N(Cc1cccs1)c1ccccn1` are 31% and -3.59.
Regarding `Cc1cc(Br)cn(Cc2nccc(N)n2)c1=O`, the “% Inhibition” value is -6% and the Z score came out at 0.78.
As for `CC(NC(=O)C1CC(=O)N(c2cc(Cl)cc(Cl)c2)C1)C1CCCO1` (stereo not drawn), the “% Inhibition” value is 2% and the Z score is -0.23.
In the same order, the values of `CN(c1ccc(N2CCOCC2)nc1)S(=O)(=O)Cc1ccon1` are -11% and 1.75.
On the same counts, the results for `COC(=O)c1nc(NC(=O)c2ccccc2-n2nnnc2C)sc1C` are -16% and 1.93.
In the same order, the values of `O=C(O)c1ccc(CN2CCOC[C@@H]2CC2CCOCC2)s1` are -8% and 1.64.
On to `Cc1n[nH]c(C)c1CN(C)Cc1noc(C2CC2)n1`, for which the “% Inhibition” value is listed as -10% and the Z score was 1.88.
On the same counts, the results for `C[C@@H](c1ccncn1)N(C)Cc1ccc(C(=O)Nc2cnns2)cc1` are -8% and 1.05.
In the same order, the values of `Cc1cc(-c2csc(NC(=O)c3c(C4CC4)cnn3C)n2)c(F)cc1F` are 4% and -0.5.
In the same order, the values of `CN1CCN(c2cc(NC(=O)c3cccc(Br)c3)ncn2)CC1` are -9% and 1.8.
For `Cc1cc(Nc2ccc(F)cc2)nc2nn(CC(C)C)c(=O)n12`, the “% Inhibition” value was -1% and the Z score amounted to 0.23.
In the same order, the values of `CCN(CC)S(=O)(=O)c1cc2c(cc1N1CCN(C)CC1)Oc1ccccc1NC2=O` are -3% and 0.56.
In the same order, the values of `O=C(Nc1cc(Oc2ccccc2)cc(Oc2ccccc2)c1)c1ccc(Br)cc1` are 9% and -1.38.
Turning to `COCC(C)(C)CNC(=O)CCc1ccnn1C`, the “% Inhibition” value is given as -19% and the Z score is 1.72.
